Data reported in PMC9911399, “Two distinct binding modes provide the RNA-binding protein RbFox with extraordinary sequence specificity”.
Where a chain is given by its changes, count along the chain named. The list shows a part of the results.

T1: RBFOX1 RRM RbFoxmut (Fox-RRM*) (Homo sapiens, UniProt Q9NWB1 109-208, R118D;E147R;N151S;E152T)
T1 sequence: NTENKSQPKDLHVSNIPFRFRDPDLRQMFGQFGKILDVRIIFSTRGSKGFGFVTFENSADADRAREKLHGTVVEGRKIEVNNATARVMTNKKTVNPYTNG

B1: GCUCCUG (DNA:RNA)
RNA: GGGAGACCGGAAUUCAGAUUGUCCGCUCCUGUUAAAUCCCGUCGUAGCCACCA
DNA 1: CAATCTGAATTCCGGTCTCCC
DNA 2: TGGTGGCTACGACGGGATT
B2: AGGCCAA (DNA:RNA)
RNA: B1 RNA with G25A, C26G, U27G, U30A, G31A
DNA 1: CAATCTGAATTCCGGTCTCCC
DNA 2: TGGTGGCTACGACGGGATT
B3: ACUCCAC (DNA:RNA)
RNA: B1 RNA with G25A, U30A, G31C
DNA 1: CAATCTGAATTCCGGTCTCCC
DNA 2: TGGTGGCTACGACGGGATT
B4: UUCGCAU (DNA:RNA)
RNA: B1 RNA with G25U, C26U, U27C, C28G, U30A, G31U
DNA 1: CAATCTGAATTCCGGTCTCCC
DNA 2: TGGTGGCTACGACGGGATT
B5: UGUUCAA (DNA:RNA)
RNA: B1 RNA with G25U, C26G, C28U, U30A, G31A
DNA 1: CAATCTGAATTCCGGTCTCCC
DNA 2: TGGTGGCTACGACGGGATT
B6: UUAGCCG (DNA:RNA)
RNA: B1 RNA with G25U, C26U, U27A, C28G, U30C
DNA 1: CAATCTGAATTCCGGTCTCCC
DNA 2: TGGTGGCTACGACGGGATT
B7: GAGAUAC (DNA:RNA)
RNA: B1 RNA with C26A, U27G, C28A, C29U, U30A, G31C
DNA 1: CAATCTGAATTCCGGTCTCCC
DNA 2: TGGTGGCTACGACGGGATT
B8: ACGGUCA (DNA:RNA)
RNA: B1 RNA with G25A, U27G, C28G, C29U, U30C, G31A
DNA 1: CAATCTGAATTCCGGTCTCCC
DNA 2: TGGTGGCTACGACGGGATT
B9: UCCUGGU (DNA:RNA)
RNA: B1 RNA with G25U, U27C, C28U, C29G, U30G, G31U
DNA 1: CAATCTGAATTCCGGTCTCCC
DNA 2: TGGTGGCTACGACGGGATT
B10: GACGCCA (DNA:RNA)
RNA: B1 RNA with C26A, U27C, C28G, U30C, G31A
DNA 1: CAATCTGAATTCCGGTCTCCC
DNA 2: TGGTGGCTACGACGGGATT
B11: UUCCGCG (DNA:RNA)
RNA: B1 RNA with G25U, C26U, U27C, C29G, U30C
DNA 1: CAATCTGAATTCCGGTCTCCC
DNA 2: TGGTGGCTACGACGGGATT
B12: GUACUUC (DNA:RNA)
RNA: B1 RNA with C26U, U27A, C29U, G31C
DNA 1: CAATCTGAATTCCGGTCTCCC
DNA 2: TGGTGGCTACGACGGGATT
B13: CCCCGGU (DNA:RNA)
RNA: B1 RNA with G25C, U27C, C29G, U30G, G31U
DNA 1: CAATCTGAATTCCGGTCTCCC
DNA 2: TGGTGGCTACGACGGGATT
B14: GCGCGGA (DNA:RNA)
RNA: B1 RNA with U27G, C29G, U30G, G31A
DNA 1: CAATCTGAATTCCGGTCTCCC
DNA 2: TGGTGGCTACGACGGGATT
B15: GUUCGUC (DNA:RNA)
RNA: B1 RNA with C26U, C29G, G31C
DNA 1: CAATCTGAATTCCGGTCTCCC
DNA 2: TGGTGGCTACGACGGGATT
B16: CGUUCCU (DNA:RNA)
RNA: B1 RNA with G25C, C26G, C28U, U30C, G31U
DNA 1: CAATCTGAATTCCGGTCTCCC
DNA 2: TGGTGGCTACGACGGGATT
B17: CCUCCUU (DNA:RNA)
RNA: B1 RNA with G25C, G31U
DNA 1: CAATCTGAATTCCGGTCTCCC
DNA 2: TGGTGGCTACGACGGGATT
B18: GGAAGUU (DNA:RNA)
RNA: B1 RNA with C26G, U27A, C28A, C29G, G31U
DNA 1: CAATCTGAATTCCGGTCTCCC
DNA 2: TGGTGGCTACGACGGGATT
B19: GAGUAAC (DNA:RNA)
RNA: B1 RNA with C26A, U27G, C28U, C29A, U30A, G31C
DNA 1: CAATCTGAATTCCGGTCTCCC
DNA 2: TGGTGGCTACGACGGGATT
B20: CAAACGC (DNA:RNA)
RNA: B1 RNA with G25C, C26A, U27A, C28A, U30G, G31C
DNA 1: CAATCTGAATTCCGGTCTCCC
DNA 2: TGGTGGCTACGACGGGATT
B21: GUCCUUU (DNA:RNA)
RNA: B1 RNA with C26U, U27C, C29U, G31U
DNA 1: CAATCTGAATTCCGGTCTCCC
DNA 2: TGGTGGCTACGACGGGATT
B22: AUCAAAA (DNA:RNA)
RNA: GGGAGACCGGAAUUCAGAUUGUCCAUCAAAAUUAAAUCCCGUCGUAGCCACCA
DNA 1: CAATCTGAATTCCGGTCTCCC
DNA 2: TGGTGGCTACGACGGGATT
B23: UUACCGA (DNA:RNA)
RNA: B22 RNA with A25U, C27A, A28C, A29C, A30G
DNA 1: CAATCTGAATTCCGGTCTCCC
DNA 2: TGGTGGCTACGACGGGATT
B24: AGACUAU (DNA:RNA)
RNA: B22 RNA with U26G, C27A, A28C, A29U, A31U
DNA 1: CAATCTGAATTCCGGTCTCCC
DNA 2: TGGTGGCTACGACGGGATT
B25: AUAGUCA (DNA:RNA)
RNA: B22 RNA with C27A, A28G, A29U, A30C
DNA 1: CAATCTGAATTCCGGTCTCCC
DNA 2: TGGTGGCTACGACGGGATT
B26: CAAAAAC (DNA:RNA)
RNA: B22 RNA with A25C, U26A, C27A, A31C
DNA 1: CAATCTGAATTCCGGTCTCCC
DNA 2: TGGTGGCTACGACGGGATT
B27: CAGACGC (DNA:RNA)
RNA: B22 RNA with A25C, U26A, C27G, A29C, A30G, A31C
DNA 1: CAATCTGAATTCCGGTCTCCC
DNA 2: TGGTGGCTACGACGGGATT
B28: GUUACGU (DNA:RNA)
RNA: B1 RNA with C26U, C28A, U30G, G31U
DNA 1: CAATCTGAATTCCGGTCTCCC
DNA 2: TGGTGGCTACGACGGGATT
B29: GCCUACU (DNA:RNA)
RNA: B22 RNA with A25G, U26C, A28U, A30C, A31U
DNA 1: CAATCTGAATTCCGGTCTCCC
DNA 2: TGGTGGCTACGACGGGATT
B30: UCGGUUG (DNA:RNA)
RNA: B1 RNA with G25U, U27G, C28G, C29U
DNA 1: CAATCTGAATTCCGGTCTCCC
DNA 2: TGGTGGCTACGACGGGATT
B31: GGGUCAC (DNA:RNA)
RNA: B1 RNA with C26G, U27G, C28U, U30A, G31C
DNA 1: CAATCTGAATTCCGGTCTCCC
DNA 2: TGGTGGCTACGACGGGATT

What follows are binders tested against T1, RBFOX1 RRM RbFoxmut (Fox-RRM*) (assay: EMSA; HiTS-Eq, 1 nM pool, 10 min; buffer printed only for the single-RNA assays: 10 mM Tris pH 7.5, 150 mM NaCl, 3.4 mM EDTA, 0.001% NP-40, 30 C). Details: tags: His6 N-terminal (pET28a); label: 5' 32P.
Method in brief: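 Purified RbFox RRM (wild type or mutant) was equilibrated for 10 min in 50 µL with 1 nM of a 5′-radiolabelled pool of RNA with 7 randomized nucleotides, its flanks annealed to DNA oligonucleotides, across increasing protein concentrations. Free RNA was separated by 8% native PAGE, excised, reverse-transcribed, PCR-barcoded and sequenced on an Illumina HiSeq 2500. Relative association constants came from read-count changes of each variant against the control reaction, normalised to the cognate motif.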
B1 was tested, and the binding signal was 0.0816 KA relative to UGCAUGU.
For B2, the binding signal was 0.0811 KA relative to UGCAUGU.
B3 was tested, and the binding signal was 0.0681 KA relative to UGCAUGU.
With B4 the binding signal was 0.123 KA relative to UGCAUGU.
In the case of B5, the binding signal is reported as 0.0759 KA relative to UGCAUGU.
In the case of B6, the binding signal is reported as 0.123 KA relative to UGCAUGU.
B7 was tested, and the binding signal was 0.1 KA relative to UGCAUGU.
For B8, the binding signal was 0.118 KA relative to UGCAUGU.
For B9, the binding signal was 0.0983 KA relative to UGCAUGU.
With B10 the binding signal was 0.0655 KA relative to UGCAUGU.
In the case of B11, the binding signal is reported as 0.105 KA relative to UGCAUGU.
B12 was tested, and the binding signal was 0.0694 KA relative to UGCAUGU.
In the case of B13, the binding signal is reported as 0.0852 KA relative to UGCAUGU.
With B14 the binding signal was 0.0813 KA relative to UGCAUGU.
With B15 the binding signal was 0.199 KA relative to UGCAUGU.
For B16, the binding signal was 0.0447 KA relative to UGCAUGU.
With B17 the binding signal was 0.0511 KA relative to UGCAUGU.
In the case of B18, the binding signal is reported as 0.0767 KA relative to UGCAUGU.
For B19, the binding signal was 0.0879 KA relative to UGCAUGU.
In the case of B20, the binding signal is reported as 0.0658 KA relative to UGCAUGU.
B21 was tested, and the binding signal was 0.081 KA relative to UGCAUGU.
With B22 the binding signal was 0.114 KA relative to UGCAUGU.
B23 was tested, and the binding signal was 0.0857 KA relative to UGCAUGU.
B24 was tested, and the binding signal was 0.0902 KA relative to UGCAUGU.
In the case of B25, the binding signal is reported as 0.109 KA relative to UGCAUGU.
B26 was tested, and the binding signal was 0.0684 KA relative to UGCAUGU.
In the case of B27, the binding signal is reported as 0.0515 KA relative to UGCAUGU.
With B28 the binding signal was 0.132 KA relative to UGCAUGU.
For B29, the binding signal was 0.0913 KA relative to UGCAUGU.
In the case of B30, the binding signal is reported as 0.231 KA relative to UGCAUGU.
B31 was tested, and the binding signal was 0.0601 KA relative to UGCAUGU.
